# Results taken from PubChem BioAssay AID1030 (National Center for Advancing Translational Sciences (NCATS), 2008).
# Among all 220,000 compounds or so, about 16,000 (7.3%) were called active. This list was built around the results that the source calls inconclusive (neither active nor inactive); the mix of calls is not that of the screen. Calls come from the whole dose curve; as a rule, active = well fitted inhibition curve with a large enough effect (not every such curve was filed as active); inconclusive = small, poorly fitted or top-dose-only effect, or another doubt; inactive = no such curve, though single readings can be large or run the other way. Potencies of inconclusive entries are left out as doubtful fits.
# Target: Aldehyde dehydrogenase 1A1 (Homo sapiens) (UniProt P00352)
# Chain of UniProt P00352 (P00352 whole entry, looked up): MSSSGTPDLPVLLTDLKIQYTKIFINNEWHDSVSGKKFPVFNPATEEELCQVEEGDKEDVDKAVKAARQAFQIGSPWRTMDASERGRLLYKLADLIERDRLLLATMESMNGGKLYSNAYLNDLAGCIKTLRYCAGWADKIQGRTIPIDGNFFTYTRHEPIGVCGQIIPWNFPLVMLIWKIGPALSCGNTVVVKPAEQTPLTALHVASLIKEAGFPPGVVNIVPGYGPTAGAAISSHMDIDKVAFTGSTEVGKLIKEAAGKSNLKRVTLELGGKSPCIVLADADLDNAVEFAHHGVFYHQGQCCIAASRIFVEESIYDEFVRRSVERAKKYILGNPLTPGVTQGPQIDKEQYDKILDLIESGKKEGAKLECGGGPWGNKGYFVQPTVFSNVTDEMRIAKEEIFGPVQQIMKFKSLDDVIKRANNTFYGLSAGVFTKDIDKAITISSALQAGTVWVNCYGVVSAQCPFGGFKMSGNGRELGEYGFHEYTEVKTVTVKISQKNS
# Assay: qHTS Assay for Inhibitors of Aldehyde Dehydrogenase 1 (ALDH1A1);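 for activity, negative = inhibition: plate controls were no enzyme wells and a reference inhibitor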
# Details: Purified ALDH1A1, NADH fluorescence, propionaldehyde substrate; series mostly up to 75.3 µM; activity, negative = inhibition: at the top concentration
# Potency is the fitted concentration of half-maximal effect; tags give direction and shape of the fitted curve.
Structure (SMILES),"activity, negative = inhibition",Potency
COc1ccc(N2C(=O)CSC2c2cccc(OC)c2OC)cc1 (stereo not given),inactive: -3.85%,–
CN(C)c1ccc(-c2nn3c(-c4ccc(Cl)cc4)nnc3s2)cc1,–,"inconclusive [inhibitor, partial curve]"
CCOCCCN(Cc1cc2cc(C)cc(C)c2[nH]c1=O)C(=O)N(CC)CC,–,"inconclusive [inhibitor, single point]"
O=C(c1ccccc1)c1coc2c1C(=O)c1ccccc1C2=O,–,active: 20 µM
Nc1cnn(C2CCCO2)c(=O)n1 (stereo not given),–,"inconclusive [inhibitor, single point]"
Cc1ccc(S(=O)(=O)N2CCN(C(=O)c3ccc([N+](=O)[O-])cc3)C2)cc1,–,"inconclusive [inhibitor, single point]"
O=C(c1csc2c1CCCC2)N1CCN(c2ncccn2)CC1,–,"inconclusive [inhibitor, single point]"
c1cc(CNc2ccc3c(c2)OCO3)ccn1,–,"inconclusive [inhibitor, partial curve]"
C=CCc1cc(/C=C2/NC(=O)N(CC(=O)OC)C2=O)cc(OC)c1O,–,"inconclusive [inhibitor, single point]"
CC(=O)Nc1ccc(Nc2nc(-c3ccccc3)nc3ccccc23)cc1,–,"inconclusive [inhibitor, single point]"
Cc1ccc2nc(-c3ccc(NC(=O)COC(=O)c4ccc([N+](=O)[O-])o4)cc3)sc2c1,–,"inconclusive [inhibitor, single point]"
c1ccc(-c2noc(CC3CCCCC3)n2)cc1,inactive: -17.1%,–
Cc1cnc(CNC(=O)c2ccc(OC3CCN(C(=O)C4CC4)CC3)cc2)cn1,inactive: 1.09%,–
CCOC(=O)c1c(C)c(C(=O)NCc2ccc(OC)cc2)c(C)n1C,–,active: 7.94 µM
Cc1ccc(C(=O)Nc2ccccc2C(=O)O)cc1S(=O)(=O)NCc1ccccc1,–,"inconclusive [inhibitor, single point]"
Brc1ccc(C2=CC(c3ccco3)n3ncnc3N2)cc1 (stereo not given),–,"inconclusive [inhibitor, partial curve]"
Cc1c(C(=O)N(C)Cc2ccccc2)oc2ccc(S(=O)(=O)N3CCCC3)cc12,–,active: 22.4 µM
COc1ccccc1/C=N/NC(=Nc1ccc(C)cc1)c1nc2ccccc2s1,–,"inconclusive [inhibitor, single point]"
CCC(=O)Nc1cccc(-c2nnc(SCC(=O)c3ccccc3)n2C)c1,–,"inconclusive [inhibitor, single point]"
Cc1ccc(-c2nn3c(-c4cccc(Cl)c4)nnc3s2)cc1,inactive: 11.2%,–
CCCCNC(=O)c1ccc2c(OCC)n(CCCC)nc2c1,–,"inconclusive [inhibitor, single point]"
CC1(C)S[C@@H]2[C@H](NC(=O)[C@H](N)c3ccccc3)C(=O)N2[C@H]1C(=O)O,–,inactive
CC(C)C[C@@H](N)C(=O)Nc1ccc2ccccc2c1,inactive: 4.07% [at 13.5 µM],–
CCCCCOCC(O)CCC(=O)NN (stereo not given),inactive: -1.89%,–
COc1ccc(NC(=O)CSc2nc3c([nH]c4ccccc43)c(=O)n2C)cc1,inactive: 18.9%,–

Structure (SMILES),"activity, negative = inhibition",Potency
COc1ccccc1-n1cnc2cc(C(=O)NCc3ccco3)ccc21,–,"inconclusive [inhibitor, single point]"
CC1CC(=O)NN=C1c1ccc(N(C)C)c([N+](=O)[O-])c1 (stereo not given),–,"inconclusive [inhibitor, single point]"
CC(=O)N1CCC2(CC1)CN(C(c1ccccc1)c1ccccc1)C2,inactive: 0.461%,–
C/C(=N\NC(=O)c1cccc(S(=O)(=O)Nc2ccccc2Cl)c1)c1ccco1,–,"inconclusive [inhibitor, single point]"
CCOC(=O)C1(CCCc2ccccc2)CCN(C(=O)CCc2cnn(C)c2)CC1,–,"inconclusive [inhibitor, partial curve]"
NC1=NC(=O)/C(=C\c2cc([N+](=O)[O-])ccc2Cl)S1,–,"inconclusive [inhibitor, full curve]"
O=C(O)c1ccc(-c2ccccc2C(F)(F)F)o1,inactive: 4.51%,–
O=C(NCc1ccccc1)C1=C[C@@H](C2CC2)C[C@@H](OCc2ccc(CO)cc2)O1,–,active: 11.2 µM
CS(=O)(=O)Nc1ccc(C(=O)NCC2CCCO2)cc1 (stereo not given),inactive: 6.51%,–
CCOC(=O)N1CCC(c2cc(=O)n3[nH]c(-c4ccccc4)cc3n2)CC1,–,"inconclusive [inhibitor, partial curve]"
CCc1ccccc1NC(=S)N(Cc1ccco1)C(C)c1cccs1 (stereo not given),inactive: -9.37%,–
CCCNc1c(N)n(-c2ccccc2)c(=O)[nH]c1=O,–,"inconclusive [inhibitor, single point]"
Nc1nc(NCc2ccco2)nc(N2CCCC2)c1[N+](=O)[O-],–,active: 3.98 µM
c1csc(CNc2nc(-c3ccc4c(c3)OCO4)nc3ccccc23)c1,–,"inconclusive [inhibitor, single point]"
COc1cccc(Cn2c(=O)c(C)nc3cnc(Nc4cccc(OC)c4)nc32)c1,inactive: 29.1%,–
S=c1[nH]nc(CCc2ccccc2)n1-c1ccc(Cl)cc1,–,"inconclusive [inhibitor, single point]"
O=C(O)c1c(F)c(F)c(F)c(F)c1-c1ccc(Cl)cc1,inactive: 2.52%,–
CN1CCN(c2ncnc3c2cnn3-c2ccc(Cl)cc2)CC1,inactive: 0.48%,–
O=c1c(Cl)c(N2CCCCC2)cnn1-c1nc2ccccc2[nH]1,–,"inconclusive [inhibitor, single point]"
O=C(O)CC12CC3CC(C1)CC(n1cncn1)(C3)C2,inactive: 4.95%,–
Cc1nc(NCc2ccccc2)c2nc(-c3ccccc3)n(CC3CCN(C)CC3)c2n1,inactive: -13.6%,–
COc1cc(C)c(C(C)C)cc1S(=O)(=O)N1CCN(C)CC1,–,active: 14.1 µM
CC1(C)N=C(SCC(=O)Nc2ccc(Cl)cc2)C(c2ccccc2)=N1,–,"inconclusive [inhibitor, single point]"
COCCNc1nnc(SCC(=O)NNC(=O)c2ccccc2)s1,inactive: 7.56%,–
CN1C[C@H](C(=O)N[C@]2(C)O[C@@]3(O)C4CCCN4C(=O)[C@H](Cc4ccccc4)N3C2=O)C[C@@H]2c3cccc4[nH]cc(c34)C[C@H]21 (stereo not given in full),–,inactive

Structure (SMILES),"activity, negative = inhibition",Potency
CCC(O)(CC)C(=O)NN(C(=O)CCl)c1ccccc1,–,"inconclusive [inhibitor, single point]"
COC(=O)c1cc(C#N)c(SCc2ccccc2)nc1C,–,"inconclusive [inhibitor, single point]"
O=C(Nc1cccc(C(F)(F)F)c1)C(=O)N1CCCCC1,inactive: 6.46%,–
Cc1sc2nc(SCC(=O)N(CCO)CCO)n(C3CCCCC3)c(=O)c2c1C,inactive: -8.29%,–
CC[C@H](C)/C=C(C)/C=C/C1=CC2=CC(=O)[C@]3(C)OC(=O)[C@@H](C(C)=O)[C@@H]3C2=CO1,–,"inconclusive [inhibitor, partial curve]"
CCOc1ccccc1N(C(=O)Cn1nnnc1-c1ccc(C)o1)C(CC)C(=O)NC(C)(C)C (stereo not given),–,"inconclusive [inhibitor, single point]"
COc1ccc2cc(CCNC(=O)C(C)(C)C)c(=O)[nH]c2c1,–,"inconclusive [inhibitor, single point]"
COc1ccc(OC)c(NC(=O)COC(=O)/C=C/c2c(C)nn(C3CCS(=O)(=O)C3)c2Cl)c1 (stereo not given),–,"inconclusive [inhibitor, partial curve]"
COC(=O)C(C(C)=O)C1=C/C(=N\S(=O)(=O)c2ccc(C)cc2)c2ccccc2C1=O (stereo not given),–,"inconclusive [inhibitor, single point]"
Cc1onc(-c2cccc(Cl)c2Cl)c1C(=O)O/N=C(\N)c1ccc([N+](=O)[O-])o1,–,active: 5.01 µM
COc1cc(C2NC(=S)NC(c3ccccc3)=C2C(C)=O)ccc1O (stereo not given),–,"inconclusive [inhibitor, partial curve]"
COc1ccccc1-c1cc(C(F)(F)F)nc(S(=O)(=O)CCCC(=O)Nc2cccnc2Cl)n1,–,"inconclusive [inhibitor, partial curve]"
Cc1ccccc1C(=O)/C=C1\NC(=O)CS1,–,active: 25.1 µM
O=c1c(-c2ccc3c(c2)OCCO3)coc2c(CN3CCOCC3)c(O)ccc12,–,"inconclusive [inhibitor, partial curve]"
Cc1cccc(Cn2c(=O)n(Cc3ccco3)c(=O)c3ccccc32)c1,–,"inconclusive [inhibitor, single point]"
O=C(CSc1nc2scc(-c3ccccc3)c2c(=O)[nH]1)N1CCCCC1,–,active: 1.78 µM
CCOC(=O)c1sc(Nc2ccc(C)cc2C)nc1C,inactive: -18.5%,–
CN(C)CCCNc1cc(O)c2c(c1O)C(=O)c1ccccc1C2=O,inactive: -6.64% [at 13.5 µM],–
S=C1NCN(Cc2cccnc2)CN1c1cccc2ccccc12,inactive: 2.26%,–
N#Cc1sc2nc(-c3cccs3)cc(-c3ccccc3)c2c1N,–,"inconclusive [inhibitor, partial curve]"
O=C1ON=C(c2ccccc2)/C1=C/c1cccnc1,inactive: -2.96%,–
COc1ccc(CNC(=O)COC(=O)c2cc(-c3ccco3)nc3ccccc23)cc1,–,"inconclusive [inhibitor, partial curve]"
CCCCCC1CC(=O)N(Cc2ccccc2)C(=O)N1 (stereo not given),–,"inconclusive [inhibitor, partial curve]"
CCNC(=O)Nc1nc2ccccc2s1,inactive: 11.6%,–
O=C(Cc1nc2ccccc2[nH]c1=O)c1ccc(Cl)cc1,–,"inconclusive [inhibitor, partial curve, poor fit]"
